Part of at least one peptide drawing is inferred or uncertain, most often the ends. Where a SMILES comes first, the peptide text is derived from it. Bridges are numbered along the chain shown (N, C = ends).
Experiments:
normal anesthetized dogs = test: Renal, cardiovascular and neurohumoral effects of i.v. infusion at 50 ng/kg/minute for 75 minutes in normal anesthetized dogs; assay type: in vivo, dog
Description: CU-NP or CNP polypeptide was intravenously infused into normal anesthetized dogs at 50 ng/kg/minute for 75 minutes. Blood and urine samples were collected pre-infusion (pre-I), at 30 and 60 minutes of infusion, and post-infusion (post-I). Inulin clearance was used for assessment of glomerular filtration rate (GFR). The lithium clearance technique was used for measurement of proximal and distal fractional reabsorption of Na^+ (PFRNa and DFRNa, respectively). Comparisons at the latter three time points versus pre-I were made. Student's t-test was used when comparing results for two time points, whereas repeated measures ANOVA was used to compare four time points.

[1] = tested on: isolated canine glomeruli; test: cGMP response in isolated canine glomeruli with or without NPR-A antagonist and NPR-B antagonist; assay type: cell-based; conditions: 10^−5 M
Description: cGMP responses to the 3 peptides also were assessed in glomeruli isolated from canine kidneys upon harvest, in the presence or absence of an NPR-A antagonist, […] (1 μM), or an NPR-B antagonist, […] (1 μM), or both antagonists added sequentially (A71915 followed by […], 1 μM final concentration for both). To confirm the involvement of NPR-B in the cGMP response to CU-NP, additional experiments were conducted using human aortic endothelial cells (HAEC). Cyclic GMP response was determined by incubating CU-NP (10^-6 M) for 10 minutes in the absence or presence of an antibody to the ligand-binding domain of NPR-B. In vitro data (mean±SEM) were analyzed by one-way ANOVA followed by Bonferroni's post-test. Statistical significance was defined as P<0.05. GraphPad Prism 4 (GraphPad Software, San Diego, Calif.) was used for statistical analyses.

[2] = 30 minutes of infusion, 50 ng/kg/minute i.v.
[3] = 60 minutes of infusion, 50 ng/kg/minute i.v.

SMILES: CC[C@H](C)[C@@H]1NC(=O)[C@H](CCCNC(=N)N)NC(=O)[C@H](CC(=O)O)NC(=O)[C@H](CC(C)C)NC(=O)[C@H](CCCCN)NC(=O)[C@H](CC(C)C)NC(=O)CNC(=O)[C@H](Cc2ccccc2)NC(=O)[C@@H](NC(=O)[C@H](CO)NC(=O)[C@H](CO)NC(=O)[C@H](CCCNC(=N)N)NC(=O)[C@H](CCCNC(=N)N)NC(=O)[C@H](CC(C)C)NC(=O)[C@H](CO)NC(=O)[C@H](CCCNC(=N)N)NC(=O)[C@@H]2CCCN2C(=O)[C@H](C)NC(=O)[C@@H](N)[C@@H](C)O)CSSC[C@@H](C(=O)N[C@@H](CC(N)=O)C(=O)N[C@@H](CO)C(=O)N[C@@H](Cc2ccccc2)C(=O)N[C@@H](CCCNC(=N)N)C(=O)N[C@@H](Cc2ccc(O)cc2)C(=O)O)NC(=O)CNC(=O)[C@H](CC(C)C)NC(=O)CNC(=O)[C@H](CO)NC(=O)[C@H](CCSC)NC(=O)[C@H](CO)NC(=O)CNC1=O [CU-NP] (H-TAPRSLRRSSCFGLKLDRIGSMSGLGCNSFRY-OH; disulfide 11-27)
- ANP excretion (normal anesthetized dogs; [2]): 21.9 ± 9.5 pg/min
- Adjusted RBF (normal anesthetized dogs; [2]): 11.64 ± 0.5 mL/kg/min
- Aldosterone (normal anesthetized dogs; [2]): 14.2 ± 2.2 ng/dL
- Angiotensin II (normal anesthetized dogs; [2]): 6.9 ± 0.7 pg/mL
- BNP excretion (normal anesthetized dogs; [2]): 18.2 ± 1.5 pg/min
- CNP excretion (normal anesthetized dogs; [2]): 4.0 ± 1.2 pg/min
- Cardiac output (normal anesthetized dogs; [2]): 3.4 ± 0.5 L/min
- DFRNa+ (normal anesthetized dogs; [2]): 92.4 ± 1.2^†¶ %
- GFR (normal anesthetized dogs; [2]): 50.7 ± 2.6 mL/min
- Hematocrit (normal anesthetized dogs; [2]): 40.3 ± 1.3 %
- K^+ excretion (normal anesthetized dogs; [2]): 68.3 ± 12.5 μeq/min
- Na^+ excretion (normal anesthetized dogs; [2]): 216.4 ± 42.3^†¶ μEq/min
- PAP (normal anesthetized dogs; [2]): 10.7 ± 0.8 mmHg
- PCWP (normal anesthetized dogs; [2]): 3.9 ± 0.7 mmHg
- PFRNa+ (normal anesthetized dogs; [2]): 62.4 ± 4.0 %
- Plasma ANP (normal anesthetized dogs; [2]): 16.7 ± 0.9 pg/mL
- Plasma BNP (normal anesthetized dogs; [2]): 21.0 ± 1.8 pg/mL
- Plasma CNP (normal anesthetized dogs; [2]): 15.4 ± 0.9 pg/mL
- Plasma cGMP (normal anesthetized dogs; [2]): 26.2 ± 1.3^†¶ pmol/mL
- Plasma renin activity (normal anesthetized dogs; [2]): 2.5 ± 0.8 ng/mL/h
- RAP (normal anesthetized dogs; [2]): 0.3 ± 0.5 mmHg
- RVR (normal anesthetized dogs; [2]): 0.50 ± 0.04 ×10^−3 mmHg · min · L^−1
- Renal generation of cGMP (normal anesthetized dogs; [2]): 2168 ± 531 pmol/min
- Systemic hypotension (normal anesthetized dogs; [2]): 135.9 ± 2.7 mmHg
- Urinary cGMP excretion (normal anesthetized dogs; [2]): 3508 ± 574^†¶ pmol/min
- Urine flow (normal anesthetized dogs; [2]): 1.28 ± 0.25^†¶ mL/min
- ANP excretion (normal anesthetized dogs; [3]): 28.3 ± 13.6 pg/min
- Adjusted RBF (normal anesthetized dogs; [3]): 12.21 ± 0.4 mL/kg/min
- Aldosterone (normal anesthetized dogs; [3]): 12.1 ± 2.1 ng/dL
- Angiotensin II (normal anesthetized dogs; [3]): 4.5 ± 0.3 pg/mL
- BNP excretion (normal anesthetized dogs; [3]): 19.3 ± 1.2 pg/min
- CNP excretion (normal anesthetized dogs; [3]): 9.1 ± 3.9 pg/min
- Cardiac output (normal anesthetized dogs; [3]): 3.0 ± 0.5 L/min
- DFRNa+ (normal anesthetized dogs; [3]): 92.2 ± 1.1^†¶ %
- GFR (normal anesthetized dogs; [3]): 53.8 ± 2.8 mL/min
- Hematocrit (normal anesthetized dogs; [3]): 41.1 ± 1.4 %
- K^+ excretion (normal anesthetized dogs; [3]): 74.6 ± 15.3 μeq/min
- Na^+ excretion (normal anesthetized dogs; [3]): 237.7 ± 35.8^†¶ μEq/min
- PAP (normal anesthetized dogs; [3]): 10.5 ± 0.7 mmHg
- PCWP (normal anesthetized dogs; [3]): 2.9 ± 0.9 mmHg
- PFRNa+ (normal anesthetized dogs; [3]): 61.3 ± 1.9 %
- Plasma ANP (normal anesthetized dogs; [3]): 16.6 ± 1.1 pg/mL
- Plasma BNP (normal anesthetized dogs; [3]): 17.0 ± 2.2 pg/mL
- Plasma CNP (normal anesthetized dogs; [3]): 15.1 ± 1.4 pg/mL
- Plasma cGMP (normal anesthetized dogs; [3]): 29.8 ± 1.5^†¶ pmol/mL
- Plasma renin activity (normal anesthetized dogs; [3]): 1.5 ± 0.4 ng/mL/h
- RAP (normal anesthetized dogs; [3]): −0.1 ± 0.5 mmHg
- RVR (normal anesthetized dogs; [3]): 0.47 ± 0.03 ×10^−3 mmHg · min · L^−1
- Renal generation of cGMP (normal anesthetized dogs; [3]): 2987 ± 622^†¶ pmol/min
- Systemic hypotension (normal anesthetized dogs; [3]): 133.9 ± 3.6 mmHg
- Urinary cGMP excretion (normal anesthetized dogs; [3]): 4591 ± 664^†¶ pmol/min
- Urine flow (normal anesthetized dogs; [3]): 1.34 ± 0.22^†¶ mL/min
- ANP excretion (normal anesthetized dogs; post-infusion): 10.4 ± 2.5 pg/min
- Adjusted RBF (normal anesthetized dogs; post-infusion): 11.60 ± 0.5 mL/kg/min
- Aldosterone (normal anesthetized dogs; post-infusion): 30.4 ± 3.5 ng/dL
- Angiotensin II (normal anesthetized dogs; post-infusion): 22.6 ± 1.6 pg/mL
- BNP excretion (normal anesthetized dogs; post-infusion): 28.3 ± 5.4 pg/min
- CNP excretion (normal anesthetized dogs; post-infusion): 21.5 ± 17.4 pg/min
- Cardiac output (normal anesthetized dogs; post-infusion): 2.8 ± 0.5 L/min
- DFRNa+ (normal anesthetized dogs; post-infusion): 97.7 ± 0.4%
- GFR (normal anesthetized dogs; post-infusion): 50.1 ± 3.5 mL/min
- Hematocrit (normal anesthetized dogs; post-infusion): 40.3 ± 1.8 %
- Na^+ excretion (normal anesthetized dogs; post-infusion): 51.2 ± 9.4 μEq/min
- PAP (normal anesthetized dogs; post-infusion): 12.3 ± 0.7 mmHg
- PCWP (normal anesthetized dogs; post-infusion): 4.3 ± 0.8 mmHg
- PFRNa+ (normal anesthetized dogs; post-infusion): 70.4 ± 2.8 %
- Plasma ANP (normal anesthetized dogs; post-infusion): 15.2 ± 0.6 pg/mL
- Plasma BNP (normal anesthetized dogs; post-infusion): 10.1 ± 1.4 pg/mL
- Plasma CNP (normal anesthetized dogs; post-infusion): 3.2 ± 0.2 pg/mL
- Plasma cGMP (normal anesthetized dogs; post-infusion): 13.0 ± 0.9 pmol/mL
- Plasma renin activity (normal anesthetized dogs; post-infusion): 14.0 ± 1.3 ng/mL/h
- RAP (normal anesthetized dogs; post-infusion): 0.7 ± 0.4 mmHg
- RVR (normal anesthetized dogs; post-infusion): 0.53 ± 0.04 ×10^−3 mmHg · min · L^−1
- Renal generation of cGMP (normal anesthetized dogs; post-infusion): 1394 ± 185 pmol/min
- Systemic hypotension (normal anesthetized dogs; post-infusion): 142.3 ± 2.7 mmHg
- Urinary cGMP excretion (normal anesthetized dogs; post-infusion): 2052 ± 208 pmol/min
- Urine flow (normal anesthetized dogs; post-infusion): 0.33 ± 0.04 mL/min
- ANP excretion (normal anesthetized dogs; pre-infusion): 3.2 ± 1.5 pg/min
- Adjusted RBF (normal anesthetized dogs; pre-infusion): 10.8 ± 0.8 mL/kg/min
- Aldosterone (normal anesthetized dogs; pre-infusion): 15.8 ± 2.7 ng/dL
- Angiotensin II (normal anesthetized dogs; pre-infusion): 13.9 ± 2.0 pg/mL
- BNP excretion (normal anesthetized dogs; pre-infusion): 13.9 ± 1.5 pg/min
- CNP excretion (normal anesthetized dogs; pre-infusion): 2.0 ± 0.4 pg/min
- Cardiac output (normal anesthetized dogs; pre-infusion): 3.1 ± 0.3 L/min
- DFRNa+ (normal anesthetized dogs; pre-infusion): 99.2 ± 0.2%
- GFR (normal anesthetized dogs; pre-infusion): 38.4 ± 3.6 mL/min
- Hematocrit (normal anesthetized dogs; pre-infusion): 37.8 ± 1.3%
- K^+ excretion (normal anesthetized dogs; pre-infusion): 14.9 ± 4.5 μeq/min
- Na^+ excretion (normal anesthetized dogs; pre-infusion): 8.0 ± 3.3 μEq/min
- PAP (normal anesthetized dogs; pre-infusion): 11.8 ± 0.9 mmHg
- PCWP (normal anesthetized dogs; pre-infusion): 5.6 ± 0.9 mmHg
- PFRNa+ (normal anesthetized dogs; pre-infusion): 84.9 ± 2.5%
- Plasma ANP (normal anesthetized dogs; pre-infusion): 14.1 ± 0.8 pg/mL
- Plasma BNP (normal anesthetized dogs; pre-infusion): 8.2 ± 0.9 pg/mL
- Plasma CNP (normal anesthetized dogs; pre-infusion): 4.0 ± 0.3 pg/mL
- Plasma cGMP (normal anesthetized dogs; pre-infusion): 8.2 ± 0.7 pmol/mL
- Plasma renin activity (normal anesthetized dogs; pre-infusion): 8.8 ± 2 ng/mL/h
- RAP (normal anesthetized dogs; pre-infusion): 1.1 ± 0.6 mmHg
- RVR (normal anesthetized dogs; pre-infusion): 0.55 ± 0.05 ×10^−3 mmHg · min · L^−1
- Renal generation of cGMP (normal anesthetized dogs; pre-infusion): 469.0 ± 55.4 pmol/min
- Systemic hypotension (normal anesthetized dogs; pre-infusion): 135.9 ± 3.9 mmHg
- Urinary cGMP excretion (normal anesthetized dogs; pre-infusion): 770 ± 48 pmol/min
- Urine flow (normal anesthetized dogs; pre-infusion): 0.13 ± 0.02 mL/min
- increase of cGMP vs. CNP [1]: 7 fold
- cGMP ([1]; blockade of NPR-A with A71915 (1 μM)): 0.31 ± 0.05 fmol/µg
- cGMP ([1]; blockade of NPR-B with P19 (1 μM)): 0.28 ± 0.04 fmol/µg
- cGMP ([1]; blockade of both NPR-A and NPR-B with A71915 and P19): 0.23 ± 0.05 fmol/µg
- cGMP ([1]; no antagonist): 0.76 ± 0.054 fmol/µg

Reference: patent US7754852B2, “Natriuretic polypeptides” (Mayo Foundation for Medical Education and Research, priority 2007, dated 2010)
